According to PubChem BioAssay AID485281 (National Center for Advancing Translational Sciences (NCATS), 2010):
The campaign covered roughly 350,000 compounds. About 260 (0.074%) were called active. The shares of active, inactive and inconclusive entries below differ from those in the screen. Calls follow the shape of the dose curve; as a rule, active = well fitted inhibition curve with a large enough effect; inconclusive = small, poorly fitted or top-dose-only effect; inactive = no such curve, though single readings can be large or run the other way. Potencies of inconclusive entries are doubtful fits and often do not repeat.

What follows are compounds tested against Ferritin light chain (Equus caballus) (UniProt P02791) (assay: qHTS Assay for Identification of Novel General Anesthetics). Details: apoferritin/1-aminoanthracene competitive binding, fluorescence; series mostly up to 77.5 µM.
Summary of the method: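 Probe: 1-aminoanthracene (50% saturated, PBS). Protein: horse-spleen apoferritin, 10 uM. Incubation: 10 min, room temperature. Detection: 380 nm excitation, 535 nm emission. Analysis: normalized response, four-parameter Hill.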
Also: nearly all actives have a fitted effect of over 20% in size.
Potency is read from the fitted curve at half-maximal effect; tags tell the direction and shape of the fitted curve.

Chain of UniProt P02791 (P02791 whole entry, looked up): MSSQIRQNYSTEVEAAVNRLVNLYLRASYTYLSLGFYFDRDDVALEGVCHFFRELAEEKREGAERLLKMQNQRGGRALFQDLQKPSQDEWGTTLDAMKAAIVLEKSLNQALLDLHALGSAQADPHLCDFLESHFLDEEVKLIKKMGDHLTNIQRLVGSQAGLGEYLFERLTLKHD

SMILES	Potency
CCOCCCn1cc(C(=O)c2cc(Br)ccc2O)cc(C#N)c1=O	inconclusive: 28.2 µM [inhibitor, partial curve]
CSc1ncccc1C(=O)OCC(=O)c1ccc(Br)s1	inconclusive: 39.8 µM [inhibitor, partial curve]
O=C(O)Cn1c(O)c(C=Nc2ccccc2)sc1=S	inactive
CC(C)NC(=O)c1onc(CSc2cccc3ccccc23)c1C(=O)O	inconclusive: 25.1 µM [inhibitor, partial curve]
CCOC(=O)c1c(Nc2ccc(OC)cc2)nnc(-c2ccccc2)c1-c1ccccc1	inconclusive: 11.2 µM [inhibitor, partial curve]
Cc1ccc(S(=O)(=O)Nc2ccc(SC(F)F)cc2)c(C)c1	inconclusive: 22.4 µM [inhibitor, partial curve]
Cn1c(SCc2ccc(C#N)cc2Cl)nc2ccccc21	inconclusive: 50.1 µM [inhibitor, partial curve, poor fit]
COC(=O)c1cc(S(=O)(=O)NCc2ccc(Br)cc2)c[nH]1	inconclusive: 35.5 µM [inhibitor, partial curve]
Cn1nc(C(F)(F)F)c2cc(C(=O)Nc3ccc(F)cc3)sc21	inactive
N/C(=N\c1nc2ccccc2o1)NC(=O)C(Cc1ccccc1)N1C(=O)c2ccccc2C1=O (stereo not given)	inconclusive: 11.2 µM [inhibitor, partial curve]
COc1ccc2c(c1)C(=O)N(Cc1ccccc1)C(=O)C2(C)C	inconclusive: 31.6 µM [inhibitor, partial curve]
CN(C)c1cc[n+](CC(=O)Nc2cccc([N+](=O)[O-])c2)cc1	inactive
Cc1ccc(CSc2ncnc3c2cnn3Cc2ccccc2)cc1C	inconclusive: 14.1 µM [inhibitor, partial curve]
CC(Nc1c([N+](=O)[O-])c(=O)oc2ccccc12)C(Cl)c1ccccc1 (stereo not given)	inconclusive: 20 µM [inhibitor, partial curve]
CCC(C)(C)n1nnnc1CN(Cc1ccco1)Cc1cc2cc3c(cc2[nH]c1=O)OCO3	inactive
CCCCN1C(=O)N(c2ccc(Cl)cc2)C(C)(O)CC1(C)C (stereo not given)	inconclusive: 39.8 µM [inhibitor, single point]
Cc1ccc(Cn2ccc(NC(=O)c3noc4c3CCc3ccccc3-4)n2)cc1	inactive
C=CCNC(=S)NCc1ccccc1	inactive
O=C(CN1C(=O)c2cccnc2Oc2ccc(Cl)cc21)Nc1cccc(C(F)(F)F)c1	inconclusive: 14.1 µM [inhibitor, partial curve]
Cc1nnc(SCC(=O)NC(=O)Nc2ccc3c(c2)OCCO3)s1	inconclusive: 22.4 µM [inhibitor, partial curve]
COC(C(=O)Nc1c(F)cccc1F)c1ccccc1 (stereo not given)	inconclusive: 35.5 µM [inhibitor, single point]
O=C(NNS(=O)(=O)c1ccc(Cl)cc1)c1cc(-c2ccccc2)nc2ccccc12	inconclusive: 39.8 µM [inhibitor, single point]
Fc1ccc(CNCc2ccccc2Cl)cc1	inconclusive: 25.1 µM [inhibitor, partial curve]

SMILES	Potency
NC(=O)NC(=O)COC(=O)c1ccccc1OCc1ccc(F)cc1	inactive
O=C(CN1CCN(c2ncccn2)CC1)NCc1ccc2c(c1)OCO2	inactive
CC(OC(=O)CNC(=O)c1ccccc1F)C(=O)Nc1nc(-c2ccccc2)cs1 (stereo not given)	inconclusive: 22.4 µM [inhibitor, partial curve]
Fc1ccccc1N1CCN(c2nc3ccccc3c3nc(-c4ccccc4)nn23)CC1	inactive
CCOC(=O)N1CCC(NC(=O)c2ccc3c(c2)sc2nc(-c4ccccc4)cn23)CC1	inactive
Cc1c(Cl)cnc(NC(=O)COC(=O)c2ccc3ncsc3c2)c1Cl	inconclusive: 35.5 µM [inhibitor, single point]
COc1cc2c(cc1OC)CN(C(=O)CCOc1ccccc1C)CC2	inactive
CC(C)Sc1nsc2nc(=O)c(/C=C3\C=Nc4ccccc43)c(N)n12	inconclusive: 39.8 µM [inhibitor, single point]
CC(C)(C)c1cc(NS(=O)(=O)c2ccc(Br)s2)no1	inconclusive: 28.2 µM [inhibitor, partial curve]
CC(C)(C)c1csc(N/N=C/c2ccc(O)cc2)n1	inconclusive: 31.6 µM [inhibitor, partial curve]
CC(C)(C)C(=O)Cn1ncc(N2CCCC2)c(Br)c1=O	inactive
O=C(Nc1ccccc1)OCCOc1ccccc1	inconclusive: 31.6 µM [inhibitor, single point]
CCc1nn2c(=O)c(S(=O)(=O)Nc3ccc(Cl)cc3)c(C)nc2s1	inconclusive: 44.7 µM [inhibitor, single point]
COc1ccc(NC(=S)NC(NC(=O)c2ccc(Cl)cc2Cl)C(Cl)(Cl)Cl)c([N+](=O)[O-])c1 (stereo not given)	inconclusive: 20 µM [inhibitor, partial curve]
CCC(c1nnnn1CCOC)N(Cc1cc2cc(C)c(C)cc2[nH]c1=O)CC1CCCO1 (stereo not given)	inactive
O=C(CSc1nc(-c2ccc(F)cc2)[nH]c1-c1ccc(F)cc1)Nc1ccc2c(c1)OCO2	inactive
O=C(CSCc1ccccc1Br)N/N=C/c1ccc(OCC(=O)N2CCCCC2)cc1	inconclusive: 14.1 µM [inhibitor, partial curve]
CCOC(=O)c1ccc(NS(=O)(=O)N2CCCCCC2)cc1	inconclusive: 35.5 µM [inhibitor, single point]
COC(=O)c1cc(NC(=O)Cn2c(=O)cnc3ccccc32)cc(C(=O)OC)c1	inconclusive: 35.5 µM [inhibitor, partial curve]
O=C(Nc1ccc(F)c(F)c1)c1ccco1	inconclusive: 15.8 µM [inhibitor, partial curve]
COc1cccc(NC(=S)NN=C2CCC(C(C)(C)C)CC2)c1 (stereo not given)	inconclusive: 15.8 µM [inhibitor, partial curve]
CCOc1ccc(/C=C/C2=Cc3c(sc(NC(=O)CSc4n[nH]c(N)n4)c3C#N)C(C)(C)C2)cc1	inconclusive: 28.2 µM [inhibitor, partial curve]
